# Test results taken from the supplement of paper PMC8728848.
# Some of the results follow.
# B1: Clec49 (Caenorhabditis elegans) (protein)
# chain: MTRLTLLLFGLLGAATAQTCNTGGIYNEQFNRCYQYFTAPAQFSFAEQQCNLLGGHLASVQNGQENALLQSNAANSFKRSNYSDYWIGATDLETSGTWKWTDPSVTFDYSNWQLGEPQSGSDCAIQDKGDGTWSAIGCTSYRPYVCVTPVIMTATCPPITTPIPTTCPTPAPCPIKQCVPSCDQGWTYFSPTDFCYRVYHGEKFNDAEASCVLLGGHLASIHSLTENTFVNNIASCGIKEGKYEHLAWIGMRKVGQDWVWTDGTPSDYFNWAPKQPDNPKKELCVQTAPDLSHDKWYENWNNLECNEVMRAYICKKASIHN
# Columns and labels:
# Assay in all cases: glycan array binding signal (z-score within array); higher = stronger binding
# Settings in all cases: glycan notation: IUPAC condensed, linker removed
# [1] = target: Neu5Ac(a2-3)Gal(b1-3)GalNAc
# Procedure, shortened: (§1)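 Columns mapping to the same glycan were averaged after glycan names were converted to IUPAC-condensed notation. The data come from 3228 arrays in the Consortium for Functional Glycomics database, limited to those with an available protein sequence. Binding is reported as a within-array Z-score averaged across arrays of one protein sequence and across linkers.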
# [2] = target: Neu5Ac(a2-3)Gal(b1-3)GalNAc(b1-3)Gal(a1-4)Gal(b1-4)Glc
# Procedure, shortened: as §1
# [3] = target: Neu5Ac(a2-3)Gal(b1-3)GalNAc(b1-4)Gal(b1-4)Glc
# Procedure, shortened: as §1
# [4] = target: Neu5Ac(a2-3)Gal(b1-3)GalNAc(b1-4)[Neu5Ac(a2-3)]Gal(b1-4)Glc
# Procedure, shortened: as §1
# [5] = target: Neu5Ac(a2-3)Gal(b1-3)GalNAc(b1-4)[Neu5Ac(a2-8)Neu5Ac(a2-3)]Gal(b1-4)Glc
# Procedure, shortened: as §1
# [6] = target: Neu5Ac(a2-3)Gal(b1-3)GalNAc6S
# Procedure, shortened: as §1
# [7] = target: Neu5Ac(a2-3)Gal(b1-3)GlcNAc
# Procedure, shortened: as §1
# [8] = target: Neu5Ac(a2-3)Gal(b1-3)GlcNAc(b1-2)Man
# Procedure, shortened: as §1
# [9] = target: Neu5Ac(a2-3)Gal(b1-3)GlcNAc(b1-2)Man(a1-3)[GlcNAc(b1-4)][Neu5Ac(a2-3)Gal(b1-3)GlcNAc(b1-2)Man(a1-6)]Man(b1-4)GlcNAc(b1-4)GlcNAc
# Procedure, shortened: as §1
# [10] = target: Neu5Ac(a2-3)Gal(b1-3)GlcNAc(b1-2)Man(a1-3)[Neu5Ac(a2-3)Gal(b1-3)GlcNAc(b1-2)Man(a1-6)]Man(b1-4)GlcNAc(b1-4)GlcNAc
# Procedure, shortened: as §1
# [11] = target: Neu5Ac(a2-3)Gal(b1-3)GlcNAc(b1-2)[Neu5Ac(a2-3)Gal(b1-3)GlcNAc(b1-4)]Man(a1-6)[Neu5Ac(a2-3)Gal(b1-3)GlcNAc(b1-2)Man(a1-3)]Man(b1-4)GlcNAc(b1-4)GlcNAc
# Procedure, shortened: as §1
# [12] = target: Neu5Ac(a2-3)Gal(b1-3)GlcNAc(b1-3)Gal(b1-3)GlcNAc
# Procedure, shortened: as §1
# [13] = target: Neu5Ac(a2-3)Gal(b1-3)GlcNAc(b1-3)Gal(b1-4)GlcNAc
# Procedure, shortened: as §1
# [14] = target: Neu5Ac(a2-3)Gal(b1-3)GlcNAc(b1-3)GalNAc
# Procedure, shortened: as §1
# [15] = target: Neu5Ac(a2-3)Gal(b1-3)GlcNAc(b1-6)GalNAc
# Procedure, shortened: as §1
# [16] = target: Neu5Ac(a2-3)Gal(b1-3)GlcNAc6S
# Procedure, shortened: as §1
# [17] = target: Neu5Ac(a2-3)Gal(b1-3)[Fuc(a1-4)]GlcNAc
# Procedure, shortened: as §1
# [18] = target: Neu5Ac(a2-3)Gal(b1-3)[Fuc(a1-4)]GlcNAc(b1-3)Gal(b1-3)[Fuc(a1-4)]GlcNAc
# Procedure, shortened: as §1
# [19] = target: Neu5Ac(a2-3)Gal(b1-3)[Fuc(a1-4)]GlcNAc(b1-3)Gal(b1-4)[Fuc(a1-3)]GlcNAc
# Procedure, shortened: as §1
# [20] = target: Neu5Ac(a2-3)Gal(b1-3)[GlcNAc(b1-6)]GalNAc
# Procedure, shortened: as §1
# [21] = target: Neu5Ac(a2-3)Gal(b1-3)[Neu5Ac(a2-6)]GalNAc
# Procedure, shortened: as §1
# [22] = target: Neu5Ac(a2-3)Gal(b1-3)[Neu5Ac(a2-6)]GlcNAc(b1-3)[Fuc(a1-3)[Gal(b1-4)]GlcNAc(b1-6)]Gal(b1-4)Glc
# Procedure, shortened: as §1
# [23] = target: Neu5Ac(a2-3)Gal(b1-3)]Neu5Ac(a2-3)Gal(b1-4)]GlcNAc
# Procedure, shortened: as §1
# Neu5Ac(a2-3)Gal(b1-4)Glc = target: Neu5Ac(a2-3)Gal(b1-4)Glc
# Procedure, shortened: as §1
# [24] = target: Neu5Ac(a2-3)Gal(b1-4)GlcNAc
# Procedure, shortened: as §1
# [25] = target: Neu5Ac(a2-3)Gal(b1-4)GlcNAc(b1-2)Man
# Procedure, shortened: as §1
# [26] = target: Neu5Ac(a2-3)Gal(b1-4)GlcNAc(b1-2)Man(a1-3)[GlcNAc(b1-4)][Neu5Ac(a2-3)Gal(b1-4)GlcNAc(b1-2)Man(a1-6)]Man(b1-4)GlcNAc(b1-4)GlcNAc
# Procedure, shortened: as §1
# [27] = target: Neu5Ac(a2-3)Gal(b1-4)GlcNAc(b1-2)Man(a1-3)[Neu5Ac(a2-3)Gal(b1-4)GlcNAc(b1-2)Man(a1-6)]Man(b1-4)GlcNAc(b1-4)GlcNAc
# Procedure, shortened: as §1
# [28] = target: Neu5Ac(a2-3)Gal(b1-4)GlcNAc(b1-2)Man(a1-3)[Neu5Ac(a2-3)Gal(b1-4)GlcNAc(b1-2)Man(a1-6)]Man(b1-4)GlcNAc(b1-4)[Fuc(a1-6)]GlcNAc
# Procedure, shortened: as §1
# [29] = target: Neu5Ac(a2-3)Gal(b1-4)GlcNAc(b1-2)Man(a1-3)[Neu5Ac(a2-6)Gal(b1-4)GlcNAc(b1-2)Man(a1-6)]Man(b1-4)GlcNAc(b1-4)GlcNAc
# Procedure, shortened: as §1
# [30] = target: Neu5Ac(a2-3)Gal(b1-4)GlcNAc(b1-2)[Neu5Ac(a2-3)Gal(b1-4)GlcNAc(b1-4)]Man(a1-3)[GlcNAc(b1-4)][Neu5Ac(a2-3)Gal(b1-4)GlcNAc(b1-2)[Neu5Ac(a2-3)Gal(b1-4)GlcNAc(b1-6)]Man(a1-6)]Man(b1-4)GlcNAc(b1-4)GlcNAc
# Procedure, shortened: as §1
# [31] = target: Neu5Ac(a2-3)Gal(b1-4)GlcNAc(b1-2)[Neu5Ac(a2-3)Gal(b1-4)GlcNAc(b1-4)]Man(a1-3)[GlcNAc(b1-4)][Neu5Ac(a2-3)Gal(b1-4)GlcNAc(b1-4)Man(a1-6)]Man(b1-4)GlcNAc(b1-4)GlcNAc
# Procedure, shortened: as §1
# [32] = target: Neu5Ac(a2-3)Gal(b1-4)GlcNAc(b1-2)[Neu5Ac(a2-3)Gal(b1-4)GlcNAc(b1-6)]Man(a1-6)[Neu5Ac(a2-3)Gal(b1-4)GlcNAc(b1-2)Man(a1-3)][GlcNAc(b1-4)]Man(b1-4)GlcNAc(b1-4)GlcNAc
# Procedure, shortened: as §1
# [33] = target: Neu5Ac(a2-3)Gal(b1-4)GlcNAc(b1-3)Gal
# Procedure, shortened: as §1
# [34] = target: Neu5Ac(a2-3)Gal(b1-4)GlcNAc(b1-3)Gal(b1-3)GlcNAc
# Procedure, shortened: as §1
# [35] = target: Neu5Ac(a2-3)Gal(b1-4)GlcNAc(b1-3)Gal(b1-4)GlcNAc
# Procedure, shortened: as §1
# [36] = target: Neu5Ac(a2-3)Gal(b1-4)GlcNAc(b1-3)Gal(b1-4)GlcNAc(b1-2)Man(a1-3)[Neu5Ac(a2-3)Gal(b1-4)GlcNAc(b1-3)Gal(b1-4)GlcNAc(b1-2)Man(a1-6)]Man(b1-4)GlcNAc(b1-4)GlcNAc
# Procedure, shortened: as §1
# [37] = target: Neu5Ac(a2-3)Gal(b1-4)GlcNAc(b1-3)Gal(b1-4)GlcNAc(b1-3)Gal(b1-4)GlcNAc
# Procedure, shortened: as §1
# [38] = target: Neu5Ac(a2-3)Gal(b1-4)GlcNAc(b1-3)Gal(b1-4)GlcNAc(b1-3)Gal(b1-4)GlcNAc(b1-2)Man(a1-3)[Neu5Ac(a2-3)Gal(b1-4)GlcNAc(b1-3)Gal(b1-4)GlcNAc(b1-3)Gal(b1-4)GlcNAc(b1-2)Man(a1-6)]GalNAc
# Procedure, shortened: as §1
# [39] = target: Neu5Ac(a2-3)Gal(b1-4)GlcNAc(b1-3)Gal(b1-4)GlcNAc(b1-3)GalNAc
# Procedure, shortened: as §1
# [40] = target: Neu5Ac(a2-3)Gal(b1-4)GlcNAc(b1-3)Gal(b1-4)GlcNAc(b1-3)[Neu5Ac(a2-3)Gal(b1-4)GlcNAc(b1-3)Gal(b1-4)GlcNAc(b1-6)]GalNAc
# Procedure, shortened: as §1
# [41] = target: Neu5Ac(a2-3)Gal(b1-4)GlcNAc(b1-3)Gal(b1-4)GlcNAc(b1-6)[Gal(b1-3)]GalNAc
# Procedure, shortened: as §1
# [42] = target: Neu5Ac(a2-3)Gal(b1-4)GlcNAc(b1-3)Gal(b1-4)[Fuc(a1-3)]GlcNAc
# Procedure, shortened: as §1
# [43] = target: Neu5Ac(a2-3)Gal(b1-4)GlcNAc(b1-3)GalNAc
# Procedure, shortened: as §1
# [44] = target: Neu5Ac(a2-3)Gal(b1-4)GlcNAc(b1-3)[Neu5Ac(a2-3)Gal(b1-4)GlcNAc(b1-6)]GalNAc
# Procedure, shortened: as §1
binder,measurement,setting,value
B1,glycan array binding signal (z-score),[1],-0.4
same,glycan array binding signal (z-score),[2],-0.381
same,glycan array binding signal (z-score),[3],-1.05
same,glycan array binding signal (z-score),[4],1.48
same,glycan array binding signal (z-score),[5],-0.511
same,glycan array binding signal (z-score),[6],-0.492
same,glycan array binding signal (z-score),[7],-0.393
same,glycan array binding signal (z-score),[8],-0.287
same,glycan array binding signal (z-score),[9],-0.415
same,glycan array binding signal (z-score),[10],0.787
same,glycan array binding signal (z-score),[11],3.69
same,glycan array binding signal (z-score),[12],-1.14
same,glycan array binding signal (z-score),[13],-0.518
same,glycan array binding signal (z-score),[14],-0.541
same,glycan array binding signal (z-score),[15],-0.227
same,glycan array binding signal (z-score),[16],-0.159
same,glycan array binding signal (z-score),[17],-0.716
same,glycan array binding signal (z-score),[18],-0.342
same,glycan array binding signal (z-score),[19],1.08
same,glycan array binding signal (z-score),[20],-0.809
same,glycan array binding signal (z-score),[21],0.05
same,glycan array binding signal (z-score),[22],-0.325
same,glycan array binding signal (z-score),[23],-0.673
same,glycan array binding signal (z-score),Neu5Ac(a2-3)Gal(b1-4)Glc,-0.49
same,glycan array binding signal (z-score),[24],0.054
same,glycan array binding signal (z-score),[25],0.346
same,glycan array binding signal (z-score),[26],-0.138
same,glycan array binding signal (z-score),[27],-0.055
same,glycan array binding signal (z-score),[28],-0.426
same,glycan array binding signal (z-score),[29],-0.439
same,glycan array binding signal (z-score),[30],-0.218
same,glycan array binding signal (z-score),[31],0.389
same,glycan array binding signal (z-score),[32],0.886
same,glycan array binding signal (z-score),[33],-0.364
same,glycan array binding signal (z-score),[34],-0.409
same,glycan array binding signal (z-score),[35],-0.208
same,glycan array binding signal (z-score),[36],2.19
same,glycan array binding signal (z-score),[37],-0.309
same,glycan array binding signal (z-score),[38],5.23
same,glycan array binding signal (z-score),[39],-0.065
same,glycan array binding signal (z-score),[40],0.317
same,glycan array binding signal (z-score),[41],-0.585
same,glycan array binding signal (z-score),[42],-0.36
same,glycan array binding signal (z-score),[43],0.315
same,glycan array binding signal (z-score),[44],0.343
